Results: the supplement of paper PMC10126150
Sequences with one replicate were seen in a single cluster, so their values are uncertain.

tested on: ATP; test: switch fluorescence ratio, 500 uM ATP over buffer (Cy3 cluster intensity, sum of 5 cycles each) (fold (ratio)); higher = stronger signal-on switching upon ATP binding; sequences stand for … in TCGTCGGCAGCGTCAGATGTGTATAAGAGACAGTTTTTTTTTTTTTTTTTTTTTTTTT…TC; settings: aptamer strand: ATP DNA aptamer (quencher-CACCTGGGGGAGTATTGCGGAGGAAGG + anchor), 100 nM annealed; ATP concentration: 500 uM; one replicate
Method in brief: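 Clusters with intensities outside 100-1000 RFU were excluded. The remaining Cy3-labelled switching-strand clusters on a modified Illumina MiSeq flow-cell had been annealed to 100 nM quencher-labelled ATP aptamer and imaged in selection buffer, then after 15 min with 500 uM ATP at 22 °C, for five cycles separated by NaOH stripping and re-annealing. The fluorescence ratio, averaged per switch-domain sequence, is each cluster's summed target-cycle Cy3 intensity over its summed buffer-cycle Cy3 intensity.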
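Note: ATP exposure 15 min at 22 °C before imaging.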

Sequence	switch fluorescence ratio
GGACCAGTGT	0.945
GTATCACTAT	0.971
ACTTGGGCGC	1.02
GTGAAGGATG	1.02
TTGTGAATGG	0.991
TACGCCCCAG	1.08
AGCACCGCAT	1.36
GACGAGCTAT	2.28
ATGTCAGTAG	1.02
ACTGTGTATG	1.01
AGTTGGATGA	0.995
TTGCAATCGC	1.5
CCGATGAATC	5.03
CAGCGAACGC	0.996
GGAAATAGAA	0.988
TGTCAGCGGG	0.974
TTTGCCCCC	1.3
GTAAGGACA	1.02
GGCCGGTGGC	0.991
CTGGGAAAAA	1.05
TGGTGGCGCC	0.984
GTTTCTATAG	0.984
ATGTAGACCG	1.05
ACTTTAGAAA	1.06
GTAGGAGACG	1.14
CCTCTACGCA	3.12

Sequence	switch fluorescence ratio
GGAGTAGCAC	1.14
AATAGTGGG	0.962
GTAAGATATA	1.01
GATTTCGTCA	1.03
CCTGGAAGTG	1.1
GAGCCCGTGA	1.06
AACCCCATCT	1.05
CGACTATGGG	0.998
GGGTTGATAT	0.973
TAGAATATAC	1.11
TGTTGTATCG	0.991
AACTCAATTT	1.03
AGCGACGACT	0.992
TGGGCATTGC	1.04
ATGAATATTT	0.97
CGATACCTAA	1.04
CTACTGGGA	1.01
CCCGGCCTTC	1.05
ACTGGCGCAT	1.13
AGTGTAAATG	1.03
AAGTGCTCA	1.01
ATAAGCTCTT	0.979
GCCCTGCCCT	0.991
CTCTGTAGAA	1.09
GCAACTGTTG	0.979
TATTATGCAG	1.04

Sequence	switch fluorescence ratio
TCGTCTAGGG	1.02
TTGAGTCGAT	1.01
GATATAGCCC	1
ATATTCGAGG	1
AGTTGCGTAC	1.07
TTGAGGTCCA	0.997
ATGGCTTCGA	1.01
CATTGAGGAG	0.949
CAATTTGAGG	0.984
ACTTGCGCTG	1.02
AGTCCTTTAT	0.993
TCGAGTACCT	1.12
GCACAAAGGG	1.01
TAATGCTCCT	1.68
ATCCGTTAGT	0.988
GTAGCACTAT	2.03
TGGGAGTAGT	0.987
TCTATTGGTA	1.04
ACTTTAAGTC	1.02
GGGTTGTTAA	0.981
TGCGAGAGGG	0.989
GCATTCCCGG	1.19
TCGGGGGCTC	1.03
TAGGTGTCTC	0.969
TACGCACTTA	1.4
AGCAGTACCG	1.1

Sequence	switch fluorescence ratio
CATTTGTGG	0.991
GACTGAAGGA	0.96
CGGACCCGAA	1.02
GAAGTTGCG	0.986
TGAAAGCGCA	0.975
CAAGGCGAAC	1.13
AAAGGTAAGT	1.02
TAACTGCATA	1.08
TAAACGCGCA	1.1
CGTTCTAAGT	1.01
GCTTAATGCG	1.02
ACTGTTCTGG	1.03
ATCTAATTGC	1.03
GGGTCCTGCT	1.04
GCGCACTCTC	2.12
GGTACAGTAG	0.999
GTAGTAGGT	1
GCTCATCAAT	1.63
GGGACGCTCT	1.05
CATTGTTGTG	1.01
TAAATGTCAA	1.03
CAATTTAGGT	1.04
TTTTGAGAAG	0.992
ACGAGACAGG	1.05
CTTAGCCGTT	0.976
TTCCTCTGGG	1.13

Sequence	switch fluorescence ratio
TAGCCATATA	1.06
ATGCTAACTC	1.06
CCACTAAATC	2.18
CGAGGGCGTA	0.951
GTGCGTATTT	0.966
AAGACGGGAC	1.22
ACGATCTTGG	0.981
AGGGTCATGT	1.03
TCTATTGGCA	1.01
CGATAAAGA	1.04
CTTAAGATTC	1.01
AAAACATTTA	1.03
TAGAGT	0.996
ATCGGGCACT	1.11
CCTCAGGTTC	1.95
CTTGATGTTA	1.01
GGGAGAAGTT	1.01
GGTGTTCCTC	1.07
GGATCAAGCC	0.967
GGGGTTGAGA	0.972
AAAACCGACT	1.05
AGCGTTGCTG	0.997
ACATCGCTAT	1.41
ATGGTGGCAA	1.06
TAGTACTAAT	0.982
AACTTCCATC	1.09

Sequence	switch fluorescence ratio
ACAGATCATT	1.03
CAGCGGACTG	0.953
CAGAAGATAA	1.02
TTTGAGATTC	0.976
ACAGACGC	1.14
GGTTACGTGT	0.933
TCACTTAACG	1.17
GGAATTGGTC	1.03
CGAGTGCGTC	1.04
AGTAAGCTGG	1.07
CATATTGTTA	1.01
AGGTGGGTAT	1.01
TTACGGGCCT	1.07
TCATGATTCA	0.994
TGGGAGCGA	1.04
GCACGCCCGT	1.06
CCGTTGAGAA	1.06
AAGTGTTCTG	0.993
TCGTAGTCGG	0.93
TTGTTTAGG	0.97
CCTTGTGGTG	0.977
GGTTCAATGA	0.923
GCGCGGATAT	1.16
TGGTTTAAAG	1
ATTCCTATTA	1.02
ACGGAATGCC	2.2

Sequence	switch fluorescence ratio
ATGCCGTTAT	1.01
CAACAGCCTG	1.07
CGGTTCAACT	0.979
GTTCTGCATA	1.25
CATTGACGT	1.07
CCGGGATTAG	1.32
ATACTTAGGA	0.973
CAATGACAAG	0.987
CCAGAAGAGC	0.979
TATTCTTGAT	0.986
CACCTTGTCT	1.02
CCGAACCCTG	1.18
ACTGTGGGTA	0.991
CTGTACGGGT	0.998
AGGGGGCTTC	1.01
GAATTTTGCA	0.99
GCTGGACATG	1.04
AGGAGCAAAT	1.65
GATCATATGG	1.06
AGTAACGGG	0.992
CGTTAACGAA	1.01
AAGGCAGTAT	1.02
ACATATCATT	1.02
CCAGTTCTGG	1.05
TCGTGGAGTG	1.01
CGTTGTTCCA	0.981

Sequence	switch fluorescence ratio
TATCGTGGCG	0.973
CAGATCCCAC	1.01
CATGTTATCG	1.01
GGGTATCCGA	1
TTAGCCCGGA	0.97
GTTCTACATT	0.99
GGTTACGTCG	0.997
ACTGAGTGCT	1.07
TGTTCCAATT	1.02
CAATCGCCT	1.07
ATTATCTCTC	1.04
TTAGCATACT	1.97
ACCCTTTTCT	1
CGGAGATTCT	0.977
TCACATAGAA	0.994
AATCTTCA	1.13
TCTCAGACGA	1.02
CACATACGTC	1.47
ATAAGGGATA	1.02
